{
  "source": "PubChem BioAssay AID624296",
  "about": "(National Center for Advancing Translational Sciences (NCATS), 2012)",
  "note": "Hit rate of the full screen: of about 350,000 compounds, about 9,900 (2.8%) were called active. This list was built around the results that the source calls inconclusive (neither active nor inactive); the mix of calls is not that of the screen. Calls follow the shape of the dose curve; as a rule, active = well fitted activation curve with a large enough effect; inconclusive = small, poorly fitted or top-dose-only effect; inactive = no such curve, though single readings can be large or run the other way. No potency is given beside an inconclusive call; the fits are too rough. Potency is read from the fitted curve at half-maximal effect; tags tell the direction and shape of the fitted curve.",
  "data": [
    {"experiment": "A quantitative high throughput screen for small molecules that induce DNA re-replication in MCF 10a normal breast cells; also: nearly all actives have a fitted effect of over 50% in size.", "conditions": "MCF 10A DNA re-replication, Hoechst nuclear intensity, 48 h; series mostly up to 46.1 µM", "values": [
      {"compound": "O=C(N/N=C/c1ccc(C(=O)O)cc1)C1=NNC(c2ccccc2)(c2ccccc2)C1", "Potency": "inactive"},
      {"compound": "C[C@@H]1COC(=O)[C@H](CC(=O)OC(C)(C)C)C/C=C\\C[C@@H](CC(=O)N[C@H](CO)Cc2ccccc2)C(=O)N1", "Potency": "inconclusive [activator, single point]"},
      {"compound": "Cc1nc(-c2ccc(Cl)cc2)sc1C1(C)CC(c2c(Cl)cccc2Cl)=NO1", "note": "(configuration not stated)", "Potency": "inconclusive [activator, full curve, poor fit]"},
      {"compound": "O=C1NC(c2ccccc2)C(c2ccccc2)N1", "note": "(configuration not stated)", "Potency": "inactive"},
      {"compound": "CN(CC(=O)Nc1ccccc1Cl)CC(=O)Nc1c(F)cccc1F", "Potency": "inactive"},
      {"compound": "CCn1c(=O)cc(SCC(=O)N2CCCCC2)c2ccccc21", "Potency": "inactive"},
      {"compound": "COc1ccc(N/C=C/C(=O)c2cc(OC)c(OC)c(OC)c2)cc1", "Potency": "active: 5.17 µM"},
      {"compound": "COc1ccc(NC(=O)CN(C)C(=O)c2cc(-c3ccc(Cl)cc3)nc3ccccc23)cc1", "Potency": "active: 18.4 µM"},
      {"compound": "OC(CNCc1ccc(-c2ccccc2)cc1)c1ccccc1", "note": "(configuration not stated)", "Potency": "active: 18.4 µM"},
      {"compound": "Cc1ccc(C(=O)NNC(=O)COc2ccc(Cl)cc2C)o1", "Potency": "inactive"},
      {"compound": "Cc1ccc(NC(=O)Cc2nc(-c3c[nH]c(C(=O)N4CCCC4)c3)cs2)c(C)c1", "Potency": "inactive"},
      {"compound": "COc1ccc(N2CCN(c3ccnc4cc(Cl)ccc34)CC2)cc1", "Potency": "inconclusive [activator, single point]"},
      {"compound": "COc1cccc(C(=O)OCC(=O)c2ccc(Br)s2)c1", "Potency": "inactive"},
      {"compound": "C=CCn1c(N)c(C(=O)Nc2ccc(C)c(C)c2)c2nc3ccccc3nc21", "Potency": "inconclusive [activator, partial curve]"},
      {"compound": "Oc1ccc(CN2CCC(Cc3ccccc3)CC2)c2cccnc12", "Potency": "inconclusive [activator, single point]"},
      {"compound": "CNCC(O)CN(c1ccccc1)c1ccccc1", "note": "(configuration not stated)", "Potency": "inconclusive [activator, single point]"},
      {"compound": "Cc1ccc(C)c(-c2nc3ccc(N)cc3[nH]2)c1", "Potency": "inconclusive [activator, full curve]"},
      {"compound": "CCOc1ccc(N(C)S(=O)(=O)c2cc(-c3cc(C)no3)ccc2C)cc1", "Potency": "inconclusive [activator, single point]"},
      {"compound": "COc1ccccc1N1CCN(S(=O)(=O)CCNC(=O)C23CC4CC(CC(C4)C2)C3)CC1", "Potency": "inconclusive [activator, single point]"},
      {"compound": "O=C(O)c1ccccc1-c1nnc2c(Cl)cc(C(F)(F)F)cn12", "Potency": "inactive"},
      {"compound": "COC(=O)CSc1nnc(CNc2ccc(Cl)cc2)n1-c1ccccc1", "Potency": "inactive"},
      {"compound": "COc1cc(N/N=C/c2ccc(N(C)C)cc2)ncn1", "Potency": "inconclusive [activator, partial curve]"},
      {"compound": "Cc1ccc(C(=O)CC(=O)c2cccc(F)c2)c(O)c1", "Potency": "inconclusive [activator, partial curve]"},
      {"compound": "COc1ccc(C(=O)/C=C/Nc2ccc(S(=O)(=O)Nc3nc(C)cc(C)n3)cc2)c(OC)c1", "Potency": "inconclusive [activator, single point]"},
      {"compound": "O=C(CN1C(=O)NC2(CCCCC2)C1=O)Nc1ccc(Cl)cc1", "Potency": "inactive"},
      {"compound": "Cc1cc(N/N=C/c2ccc(O)c(C)c2O)nc(-c2ccccc2O)n1", "Potency": "inconclusive [activator, single point]"},
      {"compound": "CCOC(=O)c1c(-c2ccc(OC)cc2)oc2ccc(OCC(N)=O)cc12", "Potency": "inconclusive [activator, partial curve, poor fit]"},
      {"compound": "COc1cccc(CC2(CO)CCCN(Cc3cn(C)c4ccccc34)C2)c1", "note": "(configuration not stated)", "Potency": "inconclusive [activator, partial curve, poor fit]"},
      {"compound": "O=C(C1=C(O)C(=O)N(CCN2CCOCC2)C1c1ccc([N+](=O)[O-])cc1)c1cccs1", "note": "(configuration not stated)", "Potency": "inactive"},
      {"compound": "CN(C/C=C/c1ccccc1)Cc1cccc2ccccc12", "Potency": "inactive"},
      {"compound": "Cc1ccc(CNC(=O)c2cc(-c3ccccc3C)n(CC3CC(c4cccc([N+](=O)[O-])c4)=NO3)n2)cc1", "note": "(configuration not stated)", "Potency": "inconclusive [activator, single point]"},
      {"compound": "CCOc1ccc(OCCC(=O)NNC(=O)c2cc(OC)c(OC)c(OC)c2)cc1", "Potency": "inactive"},
      {"compound": "CCCn1c(C(O)c2ccc(C)cc2)nc2ccccc21", "note": "(configuration not stated)", "Potency": "inconclusive [activator, partial curve, poor fit]"},
      {"compound": "Cc1c(C(C)CCCO)oc(=O)c2c1Oc1c(C)c(C(C)C[C@H](C)O)oc(=O)c1C2", "note": "(some centres not stated)", "Potency": "inconclusive [activator, single point]"},
      {"compound": "COc1ccc(CCNC(=O)COc2cc(C)cc3oc(=O)c(C)c(C)c23)cc1OC", "Potency": "inconclusive [activator, partial curve, poor fit]"},
      {"compound": "C=CCNC(=O)c1cc(Cl)ccc1[N+](=O)[O-]", "Potency": "inconclusive [activator, single point]"},
      {"compound": "COc1ccccc1NC(=O)C(=O)NCCC1CCCCN1S(=O)(=O)c1cccs1", "note": "(configuration not stated)", "Potency": "inactive"},
      {"compound": "O=C(COC(=O)Cn1[nH]c(=O)c2ccccc2c1=O)NNC(=O)c1ccccc1", "Potency": "inactive"},
      {"compound": "CCCc1c(C(=O)N/N=C/c2sccc2C)nnn1-c1nonc1N", "Potency": "inconclusive [activator, single point]"},
      {"compound": "Cc1nonc1NC(=O)CSc1nc2cc(Cl)ccc2c2c1CCCC2", "Potency": "inconclusive [activator, partial curve, poor fit]"},
      {"compound": "Cc1ccc(Cn2ccc(NC(=O)c3nn(C)cc3[N+](=O)[O-])n2)cc1", "Potency": "active: 13 µM"},
      {"compound": "Cc1ccc(N=C2NC(=O)/C(=C/c3cccn3C)S2)cc1C", "Potency": "active: 14.6 µM"},
      {"compound": "CSc1ccc(/C=C(/Sc2nnc(-c3ccccc3)o2)C(=O)O)cc1", "Potency": "inconclusive [activator, partial curve]"},
      {"compound": "Cc1ccc(N=Nc2c(C)[nH][nH]c2=O)c(C)c1", "Potency": "inconclusive [activator, partial curve]"},
      {"compound": "O=C(N/N=C/c1ccc([N+](=O)[O-])s1)c1cccc(Br)c1", "Potency": "inconclusive [activator, full curve, poor fit]"},
      {"compound": "Cc1ccc(S(=O)(=O)N2CCOCC2)cc1NC(=O)COC(=O)CCc1c[nH]c2ccccc12", "Potency": "inactive"},
      {"compound": "COCC1CCCCN1C(=O)c1cccc(OC2CCN(S(C)(=O)=O)CC2)c1", "note": "(configuration not stated)", "Potency": "inactive"},
      {"compound": "O=C(Nc1cc(Br)ccc1O)c1cnn2c(C(F)F)cc(C3CC3)nc12", "Potency": "inconclusive [activator, single point]"},
      {"compound": "COc1cc(CNCCCN2CCOCC2)ccc1OCC(=O)Nc1cccc(C(F)(F)F)c1", "Potency": "inconclusive [activator, single point]"},
      {"compound": "Cc1nc(N2CCOCC2)c2c(C)c(C(=O)Nc3ccc(C(F)(F)F)cc3)sc2n1", "Potency": "inconclusive [activator, single point]"},
      {"compound": "CC(C)c1ccc(C(=O)NC(=S)Nc2ccc3[nH]c(=O)[nH]c3c2)cc1", "Potency": "inactive"},
      {"compound": "Cc1cccnc1CN1CCN(Cc2nc(Cc3cccc(F)c3)no2)CC1", "Potency": "inactive"},
      {"compound": "COc1ccc2nc(-c3ccccc3)[nH]c2c1", "Potency": "inactive"},
      {"compound": "CN1OC[C@@H]2CN[C@H](c3cccc(-c4ccc(C#N)cc4)c3)C[C@@H]21", "Potency": "inconclusive [activator, single point]"},
      {"compound": "COc1ccc(Cl)cc1NS(=O)(=O)c1cccc(C(=O)NCC(c2ccco2)N2CCCC2)c1", "note": "(configuration not stated)", "Potency": "inactive"},
      {"compound": "Cc1ccc(CN=C2Nc3ccccc3CS2)cc1", "Potency": "inconclusive [activator, partial curve, poor fit]"},
      {"compound": "C#CCOCCOCCOCCNc1nc(N2CCN(C(=O)CCCCCCCCCCNC(=O)[C@@H](CCSC)n3cc(CCO)nn3)CC2)nc(N2CCN(C(=O)CCCCCCCCCCNC(=O)[C@@H]([C@H](C)O)n3cc(C)nn3)CC2)n1", "Potency": "active: 16.4 µM"},
      {"compound": "COc1cc(-c2nnc(-c3ccccc3)o2)cc(OC)c1OC", "Potency": "inactive"},
      {"compound": "CCOc1ccc(CCNS(=O)(=O)c2ccc3c(c2)N(C(C)=O)CCO3)cc1OCC", "Potency": "inconclusive [activator, partial curve, poor fit]"},
      {"compound": "COCc1cc(C)nc(OC)c1C(N)=O", "Potency": "inconclusive [activator, single point]"},
      {"compound": "CCCN1C(=O)/C(=C/c2nc3ccccc3c(=O)[nH]2)c2cc(C)ccc21", "Potency": "inconclusive [activator, partial curve, poor fit]"},
      {"compound": "C=CSc1sc(Cl)c(N2CCOCC2)c1[N+](=O)[O-]", "Potency": "inconclusive [activator, single point]"},
      {"compound": "COc1cccc(CNC(=O)N2CCN(S(=O)(=O)c3ccc(Cl)cc3)CC2)c1", "Potency": "inactive"},
      {"compound": "COc1ccc(NC(=S)Nc2nc(CC(=O)Nc3ccccc3OC)cs2)cc1", "Potency": "active: 20.6 µM"},
      {"compound": "CSc1nnc(-c2ccccc2)n1N", "Potency": "inactive"},
      {"compound": "CC1(C)c2ccccc2-c2nc3ccccc3cc2C1O", "note": "(configuration not stated)", "Potency": "inconclusive [activator, partial curve]"},
      {"compound": "Fc1ccc(CCNC(=S)Nc2ccc(F)c(Cl)c2)cc1", "Potency": "inconclusive [activator, single point]"},
      {"compound": "COc1ccc(Nc2ncnc3c2c(C)c(C)n3CCCN(C)C)cc1", "Potency": "inactive"},
      {"compound": "CCc1ccccc1NC(=O)c1cc(-c2cccs2)on1", "Potency": "inactive"},
      {"compound": "O=C(CC12CC3CC(CC(C3)C1)C2)NC(=S)N1CCCCC1", "Potency": "inactive"},
      {"compound": "OC1(C(F)(F)F)CC(O)(C(F)(F)F)n2nc(-c3ccccc3)cc2N1", "note": "(configuration not stated)", "Potency": "inconclusive [activator, partial curve, poor fit]"},
      {"compound": "CSc1ccccc1OCc1cc(C(=O)N(C)CCn2nc(C)cc2C)no1", "Potency": "inconclusive [activator, single point]"}
    ]}
  ]
}
